Experimental findings from ChEMBL document CHEMBL4888484, “Replenishing the malaria drug discovery pipeline: Screening and hit evaluation of the MMV Hit Generation Library 1 (HGL1) against asexual blood stage Plasmodium falciparum ,using a nano luciferase reporter read-out” (2022) are described below.

Screen size: about 150,000 compounds; about 540 (0.36%) showed an effect of 50% or more. The list shows a part of the results.

The subject of the assay is Plasmodium falciparum. Nature of the assay: Primary screen in NF54 nanoGlo assay, in single point, at 2uM, 72h; a lower Z score goes with more inhibition. It counts as functional, Erythrocyte. Conditions: timepoint 72 hour.
In the case of `Cc1cccc(-n2nc(-c3nc(-c4ccc5c(c4)OCO5)no3)c3ccccc3c2=O)c1`, the “% Inhibition” value is recorded as 13% and the Z score is on record as -1.46.

For `OC[C@H](CC1OCCO1)Nc1ccc(C(F)(F)F)cn1`, the “% Inhibition” value is listed as -2% and the Z score is listed as 0.32.

Regarding `CCc1ncc2c(n1)CN(C(=O)c1cnc(CN3CCCC3)s1)C2`, the “% Inhibition” value is recorded as -4% and the Z score turned out to be 0.72.

For the molecule `NC(=O)c1cnn(Cc2nnnn2-c2ccccc2)c1`, the “% Inhibition” value is given as -5% and the Z score was 0.85.

For the molecule `Cc1nn(-c2ccccc2)c(N2CCC(C(=O)Nc3ccc(F)c(F)c3)CC2)c1-n1c(C)ccc1C`, the “% Inhibition” value is given as -12% and the Z score is listed as 1.65.

In the case of `COc1ncccc1C(=O)N[C@H]1CC[C@@H](CO)C1`, the “% Inhibition” value was -7% and the Z score is 0.92.

With `CN1CCCN(C[C@@H]2CN(Cc3cccc(Cl)c3F)C[C@@H]2CO)CC1`, the “% Inhibition” value is -2% and the Z score is reported as 0.39.

With `CCN(C)C[C@H]1CCN(C(=O)Nc2cc(-c3ccco3)ccc2F)C1`, the “% Inhibition” value is -16% and the Z score came out at 1.5.

For `O=C1Nc2ccccc2CCC1N1CCOC(c2cccc(O)c2)C1` (stereo unspecified), the “% Inhibition” value is given as 5% and the Z score is -0.89.

In the case of `CC(=O)c1cccc(OCC(=O)Nc2ccccc2-c2nc3ccccc3[nH]2)c1`, the “% Inhibition” value was -8% and the Z score is 1.28.

Consider `COC(=O)c1ccc(N2CCC[C@H](CN3CCCCCC3)C2)nn1`, for which the “% Inhibition” value is given as -10% and the Z score was found to be 1.39.

Consider `CC(C)[C@@H](c1ccccc1Cl)N(C)C(=O)c1csc(CN)n1`, for which the “% Inhibition” value is given as -4% and the Z score is 0.62.

In the case of `Cc1nccn1-c1ncc(NC(=O)Cc2ccccc2)cn1`, the “% Inhibition” value is -6% and the Z score worked out at 0.86.

Consider `Cc1nsc(NC(=O)N2CC[C@@H]3CCCC[C@H]3C2)n1`, for which the “% Inhibition” value is recorded as -2% and the Z score was 0.42.

On to `Cc1cccc(C)c1OCCC(=O)N1Cc2c[nH]nc2[C@@H](C)C1`, for which the “% Inhibition” value is on record as 5% and the Z score was -0.77.

`Cc1nnc(N2CCC(C)CC2)[nH]c1=O`: the “% Inhibition” value is on record as -3% and the Z score was found to be 0.44.

Turning to `CN(Cc1ccccc1)[C@@H]1[C@H](O)[C@H](CO)O[C@@H]1CNC(=O)Nc1ccsc1`, the “% Inhibition” value came out at 19% and the Z score is listed as -2.17.

In the case of `CCc1cccc(-c2nc(-c3cccc(NC(=O)c4ccccc4F)c3)no2)n1`, the “% Inhibition” value is recorded as -15% and the Z score came to 2.76.

For the molecule `Cc1nnc([C@@]23COC[C@@H]2CN(C(=O)c2cccc4c2OCO4)C3)o1`, the “% Inhibition” value is on record as -14% and the Z score turned out to be 2.1.

Take `Cc1c[nH]c(CN(C)Cc2coc(C(C)C)n2)n1`: the “% Inhibition” value is given as -11% and the Z score amounted to 1.33.

For the molecule `Cc1noc(C)c1CCc1ncnn1Cc1ccccc1`, the “% Inhibition” value is 2% and the Z score is -0.4.

As for `Cc1cc(N2CCC[C@H](Cn3cncn3)C2)n2ncnc2n1`, the “% Inhibition” value is -7% and the Z score is given as 0.91.

In the case of `Nc1nonc1C(=Nc1ccc(Br)cc1)NO`, the “% Inhibition” value was -1% and the Z score was 0.15.

`CS(=O)(=O)N1CCC[C@@H]1CCc1noc(-c2ccccn2)n1`: the “% Inhibition” value was found to be 1% and the Z score is reported as -0.23.

As for `COc1cccc(-c2ccc(N3CCC(N(C)C)CC3)cc2)c1`, the “% Inhibition” value is listed as -1% and the Z score stood at 0.2.

`CCc1noc([C@H](C)NC(=O)c2n[nH]c(C)c2Cl)n1`: the “% Inhibition” value is listed as -11% and the Z score is recorded as 2.06.

For `CCc1nccn1C[C@H](C)NC1(Cc2ccccc2)CC1`, the “% Inhibition” value is given as 4% and the Z score is -0.5.

With `Cc1scc(C(=O)N[C@H]2C[C@@H](C(=O)O)C2)c1C`, the “% Inhibition” value is recorded as -5% and the Z score worked out at 0.81.

Turning to `Cc1c(Cl)c(C(=O)N2CCn3nc(Cc4ccccc4)cc3C2)nn1C`, the “% Inhibition” value is given as -7% and the Z score came to 0.94.

As to `COCCN1CCC[C@@]2(CCN(c3nc(N(C)C)nc(C)c3C)C2)C1`, the “% Inhibition” value is reported as -5% and the Z score was 0.58.

As to `CCn1ccc(-c2nc(CCOC)nn2[C@H]2CCS(=O)(=O)C2)n1`, the “% Inhibition” value is listed as -13% and the Z score is reported as 2.66.

In the case of `O=C(Cc1noc(C2CC2c2ccccc2Cl)n1)NC1CCCC1` (stereo unspecified), the “% Inhibition” value is -4% and the Z score came out at 0.49.

Take `CCOC(=O)c1c(C)nn(C2CCCCC2)c1N`: the “% Inhibition” value is -9% and the Z score amounted to 1.69.

For the molecule `CCN(C(=O)NCc1ccc(N)cc1Cl)C(C)C`, the “% Inhibition” value is listed as -12% and the Z score worked out at 1.35.

Take `COc1ccc([C@@H]2Cn3nnc(C(=O)N4CCC(C(=O)NCc5ccc(C)cc5)CC4)c3CO2)cc1`: the “% Inhibition” value is reported as -11% and the Z score is recorded as 1.

Consider `CS(=O)(=O)NCCN1CCC2(CCCC2)CC1`, for which the “% Inhibition” value was -3% and the Z score was 0.42.

`Cc1ccc(C(=O)N[C@H]2CO[C@H]3[C@@H]2OC[C@@H]3n2nnnc2-c2ccccc2)cc1`: the “% Inhibition” value is 1% and the Z score is reported as -0.15.

As to `CNCC(=O)N(Cc1ccccc1)Cc1cccc(C)n1`, the “% Inhibition” value is listed as -1% and the Z score came out at 0.16.

With `Cc1cc(N[C@H](C(=O)O)C2CCCCC2)nc(C(C)C)n1`, the “% Inhibition” value is recorded as -17% and the Z score was determined as 1.74.

As to `CC(C)c1nc2cc(C(=O)N3CCNC(=O)[C@@H]3c3ccc(F)cc3)ccc2o1`, the “% Inhibition” value is listed as -7% and the Z score came out at 1.03.

With `CC(C)Oc1ccc(C(=O)N2CCC(c3nc4ccccc4o3)CC2)cc1`, the “% Inhibition” value is -7% and the Z score is 1.13.

With `COc1ccc(-c2cc(C(=O)Oc3ccc(C)cc3)c3ccccc3n2)cc1`, the “% Inhibition” value was -9% and the Z score came out at 1.5.

As for `CC[C@@H](CNC(=NC)NCc1ccon1)Oc1ccccc1`, the “% Inhibition” value was -6% and the Z score turned out to be 0.83.

A word on the % Inhibition: it is the relative decrease from the control value, in per cent.
